In US20040259150A1 (Kyowa Kirin, published 2004):

B1: FGF-8/Fc fusion protein produced by YB2/0 (Fc fusion)
chain: QVTVQSSPNFTQHVREQSLVTDQLSRRLIRTYQLYSRTSGKHVQVLANKRINAMAEDGDPFAKLIVETDTFGSRVRVRGAETGLYICMNKKGKLIAKSNGKGKDCVFTEIVLENNYTALQNAKYEGWYMAFTRKGRPRKGSKTRQHQREVHFMKRLPRGHHTTEQSLRFEFLNYPPFTRSLRGSQRTWAPEPR[not shown - human IgG1 Fc with E283Q (EU numbers)]
notes: also called FGF-8b/Fc fusion protein; FGF8b-Fc fusion protein
B2: FGF-8/Fc fusion protein produced by CHO/DG44 cell (Fc fusion)
chain: B1 chain
notes: also called FGF-8/Fc fusion protein derived from CHO; product of transformant KC1179

Target: T1, anti-FGF-8 mouse antibody KM1334
T1 construct: Mouse antibody of hybridoma KM1334 (FERM BP-5451); H chain is of IgG class (cloned with a mouse Cγ1 probe) and L chain of κ class; also called biotinized KM1334
Experiment: ELISA; KM1334 1 µg/ml on plate, fusion protein added, peroxidase anti-human IgG(γ) detection (FIG. 35)
Method: Binding activities of the FGF-8/Fc fusion protein produced by YB2/0 and the FGF-S/Fc fusion protein produced by CHO described in the item 2 of Example 14, to KM1334 were measured by the ELISA as follows. KM1334 of 1 μg/ml was dispensed at 50 μl/well into a 96-well plate for ELISA (manufactured by Greiner) and allowed to stand at 4° C. overnight for adsorption After washing with PBS, 1% BSA-PBS was added at 100 μl/well and allowed to react at room temperature for 1 hour to block the remaining active group. After washing each well with Tween-PBS, the culture supernatant of the transformant or a purified protein was added at 50 μl/well, followed reaction at room temperature. After the reaction, each well was washed with Tween-PBS, and peroxidase labeled goat-anti-human IgG(γ) antibody solution (manufactured by American Qualex), which was diluted 3000-fold with 1% BSA-PBS, was added at 50 μl/well as the secondary antibody solution, followed by reaction at room temperature for 1 hour. After the reaction, each well was washed with Tween-PBS, and ABTS substrate solution was added at 50 μl/well, followed by reaction. After the color developed sufficiently, 5% SDS solution was added at 50 ed/well to stop the reaction. Then, the absorbance was measured at a wavelength of 415 nm and a reference wavelength of 490.

T1 sequence (VH, as listed by the source limits assumed, chain 1 of 2): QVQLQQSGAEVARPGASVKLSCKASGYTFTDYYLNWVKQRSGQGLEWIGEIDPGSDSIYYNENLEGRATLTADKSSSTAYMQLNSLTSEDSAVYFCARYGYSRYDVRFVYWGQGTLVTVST
T1 sequence (VL, as listed by the source limits assumed, chain 2 of 2): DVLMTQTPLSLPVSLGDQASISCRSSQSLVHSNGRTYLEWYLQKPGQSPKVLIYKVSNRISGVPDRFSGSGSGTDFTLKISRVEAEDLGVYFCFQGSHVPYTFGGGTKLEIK

Binder	binding result
B1	binds
B2	binds
